# Experimental data taken from the supplement of paper PMC10338343.
# ± gives the standard deviation. The list shows a part of the results, in another mix than the full data.
# Test system: MIWI (PIWIL1) piRISC loaded with piRNA #1 (30 nt)
# Assay: pre-steady-state target cleavage rate (min^-1); MIWI and MILI are mouse PIWI proteins and EfPiwi is from a freshwater sponge; tags in brackets are library labels; higher = faster piRNA-guided slicing of the target
# Conditions: guide: piRNA #1 5'p-UGAGGUAGUAGGUUGUAUAGUAUCCAGAGG; auxiliary factor: 500 nM mouse GTSF1
# How it was run: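 For Cleave-'n-Seq, a transcribed, DNA-blocked target RNA library […] met 1 nM active affinity-purified piRISC with one synthetic guide at 33 °C for 0–8 or 0–960 min in HEPES–potassium acetate buffer, with or without 500 nM GTSF1 partner protein. Uncleaved targets were sequenced and normalised to depth and weakly complementary targets, with three trials pooled and k3 capped at 0.0001 min^-1. A burst-and-steady-state fit supplied the pre-steady-state cleavage rate.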
# 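Further: 1 nM active piRISC with 0.1 nM target library at 33 °C single turnover.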
row,Sequence,pre-steady-state target cleavage rate
1,GGACUGGAUACUUUACAACCUUCUACCUCA,0.531 ± 0.037
2,GGACUGGAUAGUAUACAACCAACUACCUCA,0.0731 ± 0.0094
3,GGAGACCAUACUUUACAACCUACUACCACA,0.892 ± 0.1
4,GGAGACGAUACUAUACUACGUACUACCUCA,0.311 ± 0.029
5,GGAGACCAUACUAUACAACCUCUACCUCA,0.00374 ± 0.0027
6,GCUCUGGAUACUAUACAACCUACUAGCACA,0.455 ± 0.086
7,GGAGAGGUUACUAUACAUCCUACUACCUCA,0.566 ± 0.042
8,GGUCUGGAUACUAUACAUCCUACUACGUCA,0.396 ± 0.045
9,GGUCUGGAUACUAAACAACCUACUUCCUCA,0.0875 ± 0.022
10,GGAGAGGAUACUAUACAACUACUACCUCA,0.241 ± 0.021
11,GGAGUAGGAUACUAUACAACCUACUACCUCA,1.41 ± 0.07
12,GGUCUGGAUACUAUUCAACCUAGUACCUCA,0.396 ± 0.067
13,GGAGACGAUAGUAUACAACCUACAACCUCA,0.563 ± 0.036
14,GGAGACCAUACUAUACAACCUAUCUACCUCA,0.163 ± 0.017
15,GGAGACCUAACUAUACUACCUACUAGCUCA,0.0104 ± 0.004
16,GGAGACCAUACUAUACAACCGACUACCUCA,0.0109 ± 0.0016
17,GGAGUGGAUACAAUACAACCUACUACCUGA,0.272 ± 0.041
18,CCUCUGGAUACUAUACAACCUUGAACCUCA,0.00821 ± 0.0023
19,CGUCUGGAUACUAUACAAGCUACUACCUCA,0.73 ± 0.045
20,GGACUCGAUACUAUACAACCUACUACCUGA,0.638 ± 0.13

row,Sequence,pre-steady-state target cleavage rate
1,GGAGACCUUACUAUUCAACCAACUACCUCA,0.0233 ± 0.0045
2,CCUCUGGAUACUAUACAACCUACUAGGACA,0.0724 ± 0.02
3,GGAGACGAUACAAUACAACCUACUUCCUCA,0.408 ± 0.056
4,GGAGACCAUACUAUAGAACCUACUACGUCA,0.392 ± 0.05
5,GGAGACCUUACAAUACAACCUACUACGUCA,0.24 ± 0.036
6,GGAGUGGACUACUAUACAACCUACUACCUCA,1.47 ± 0.096
7,GGAGACGAUACUAUACAACCUACUCACCUCA,0.652 ± 0.045
8,GGUCUGCAAACUAUACAACCUACUACCUCA,1.29 ± 0.093
9,GGAGACCUUUCUAUUCAACCUACUACCUCA,0.369 ± 0.043
10,GGAGACCUUACUAUACAACCUACAACCUGA,0.304 ± 0.049
11,GGAGACCUAUCUAUACAACCUACUGACCUCA,0.378 ± 0.03
12,GGUCUGGAAAGUAUACAACCUACUACCUCA,1.58 ± 0.11
13,GGAGACCUAUGUAUACAACGAUGAUGGAGA [g12:g19:cont:t1A],< 0.0001
14,GGACUGGAUACUAUACAACCUACUACCUCA [g2:g27:cont:t1A],1.72 ± 0.11
15,GGAGUGGAUACUAUACAACCUUACUACCUCA,0.00348 ± 0.0026
16,GGACUGGAUACUAUACAACCUAGAUCCUCA,0.00693 ± 0.0025
17,GGAGACCAUACUAUACAACCUACUCCUCA,0.00356 ± 0.0031
18,GCUCUGCAUACUAUACAACCUACUACCUGA,0.865 ± 0.12
19,GGAGACGUUACUAUUCAACCUACUACCUCA,1.37 ± 0.1
20,GGAGAGGAUACUAAACAAGCUACUACCUCA,0.494 ± 0.036
